Reference: article PMC6547688
No constants are given. Whether binding was seen depends on the method and setting. Binding seen in cells or lysates may run through a third protein. Some binding calls cover weakened binding; strength is not graded here. For some assays here: Tags and fused reporters may be left off the sequences shown.

Columns and labels:
[1] = target: T1, ORC1 C-terminally tagged with Flag/HA (human) (UniProt Q13415); experiment: co-IP; TAP-TAG final eluates (anti-Flag then anti-HA, peptide elution) of Flag/HA-tagged baits from HeLa S3 Dignam nuclear extracts, analysed by western blotting
T1 sequence: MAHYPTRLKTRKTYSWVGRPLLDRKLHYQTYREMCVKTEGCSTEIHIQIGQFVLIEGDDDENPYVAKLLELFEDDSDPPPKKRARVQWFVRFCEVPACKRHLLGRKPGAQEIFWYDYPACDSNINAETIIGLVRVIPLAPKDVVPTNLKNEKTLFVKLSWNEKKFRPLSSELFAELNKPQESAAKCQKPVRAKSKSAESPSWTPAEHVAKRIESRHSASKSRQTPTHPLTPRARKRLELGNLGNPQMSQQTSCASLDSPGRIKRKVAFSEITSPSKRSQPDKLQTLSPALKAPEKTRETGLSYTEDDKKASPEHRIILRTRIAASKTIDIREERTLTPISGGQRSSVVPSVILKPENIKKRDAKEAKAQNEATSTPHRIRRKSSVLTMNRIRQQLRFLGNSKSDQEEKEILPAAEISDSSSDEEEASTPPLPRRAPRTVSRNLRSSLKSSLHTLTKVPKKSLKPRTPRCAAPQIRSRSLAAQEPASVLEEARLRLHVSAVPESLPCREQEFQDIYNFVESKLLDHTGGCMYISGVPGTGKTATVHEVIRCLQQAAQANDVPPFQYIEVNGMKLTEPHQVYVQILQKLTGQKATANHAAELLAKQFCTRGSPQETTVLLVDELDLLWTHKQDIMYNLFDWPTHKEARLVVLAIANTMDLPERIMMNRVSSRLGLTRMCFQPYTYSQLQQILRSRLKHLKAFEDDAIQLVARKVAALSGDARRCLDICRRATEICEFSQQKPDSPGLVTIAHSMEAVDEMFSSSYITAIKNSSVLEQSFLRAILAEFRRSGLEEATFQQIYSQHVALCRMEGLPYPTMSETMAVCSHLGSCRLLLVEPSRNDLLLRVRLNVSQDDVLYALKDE

[2] = target: T2, ORCA/LRWD1 C-terminally tagged with Flag/HA (human) (UniProt Q9UFC0); experiment: as above
T2 sequence: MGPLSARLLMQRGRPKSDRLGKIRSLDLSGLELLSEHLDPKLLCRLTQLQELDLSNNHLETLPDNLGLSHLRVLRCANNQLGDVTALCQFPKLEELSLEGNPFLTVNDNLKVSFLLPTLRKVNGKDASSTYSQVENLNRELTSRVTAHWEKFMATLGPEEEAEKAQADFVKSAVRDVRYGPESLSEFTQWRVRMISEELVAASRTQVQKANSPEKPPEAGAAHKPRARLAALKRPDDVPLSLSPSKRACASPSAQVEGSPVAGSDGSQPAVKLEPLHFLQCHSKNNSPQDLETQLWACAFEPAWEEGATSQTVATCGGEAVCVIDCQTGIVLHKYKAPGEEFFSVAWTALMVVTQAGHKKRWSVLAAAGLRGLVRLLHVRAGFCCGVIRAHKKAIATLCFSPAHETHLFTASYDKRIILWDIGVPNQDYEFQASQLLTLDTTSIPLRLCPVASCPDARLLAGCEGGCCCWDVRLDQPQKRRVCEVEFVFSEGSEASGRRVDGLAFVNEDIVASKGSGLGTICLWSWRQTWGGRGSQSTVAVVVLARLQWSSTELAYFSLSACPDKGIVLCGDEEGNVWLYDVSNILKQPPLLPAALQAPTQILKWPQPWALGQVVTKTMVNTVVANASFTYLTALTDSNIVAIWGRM

[3] = target: T3, CDT1 C-terminally tagged with Flag/HA (human) (UniProt Q9H211); experiment: as above
T3 sequence: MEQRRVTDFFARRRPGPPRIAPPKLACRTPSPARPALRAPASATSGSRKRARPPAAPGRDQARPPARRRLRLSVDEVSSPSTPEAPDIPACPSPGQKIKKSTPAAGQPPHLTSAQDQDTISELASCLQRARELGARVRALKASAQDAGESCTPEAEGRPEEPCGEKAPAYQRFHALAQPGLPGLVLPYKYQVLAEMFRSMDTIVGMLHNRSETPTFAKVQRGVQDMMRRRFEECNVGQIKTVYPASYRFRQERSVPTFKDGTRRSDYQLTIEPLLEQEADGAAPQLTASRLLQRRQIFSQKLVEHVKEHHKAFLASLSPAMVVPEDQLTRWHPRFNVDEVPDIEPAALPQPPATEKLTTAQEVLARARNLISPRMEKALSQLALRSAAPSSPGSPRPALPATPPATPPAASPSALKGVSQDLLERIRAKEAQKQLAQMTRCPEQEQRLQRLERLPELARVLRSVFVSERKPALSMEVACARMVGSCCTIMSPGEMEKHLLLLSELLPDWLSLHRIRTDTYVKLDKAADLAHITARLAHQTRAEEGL

[4] = target: T4, CDC6 C-terminally tagged with Flag/HA (human) (UniProt Q99741); experiment: as above
T4 sequence: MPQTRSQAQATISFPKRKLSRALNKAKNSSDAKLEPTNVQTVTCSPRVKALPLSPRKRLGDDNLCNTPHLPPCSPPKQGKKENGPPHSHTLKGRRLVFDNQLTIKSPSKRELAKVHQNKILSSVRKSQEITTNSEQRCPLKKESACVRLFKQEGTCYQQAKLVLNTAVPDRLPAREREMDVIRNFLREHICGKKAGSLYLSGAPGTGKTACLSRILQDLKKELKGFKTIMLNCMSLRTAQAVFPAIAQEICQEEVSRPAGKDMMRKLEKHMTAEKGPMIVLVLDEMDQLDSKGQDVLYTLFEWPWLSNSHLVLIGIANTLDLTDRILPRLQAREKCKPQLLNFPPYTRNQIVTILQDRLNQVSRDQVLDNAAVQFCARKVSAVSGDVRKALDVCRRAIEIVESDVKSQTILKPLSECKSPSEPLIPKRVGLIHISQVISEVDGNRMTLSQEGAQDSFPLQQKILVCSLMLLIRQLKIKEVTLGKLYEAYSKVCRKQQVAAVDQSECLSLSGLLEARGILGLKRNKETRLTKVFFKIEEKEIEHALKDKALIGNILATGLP

[5] = target: T5, ORC1, endogenous (human (endogenous in HeLa S3)) (UniProt Q13415); experiment: co-IP; immunoprecipitation/western blotting of endogenous proteins in HeLa S3 cell Dignam extracts
T5 sequence: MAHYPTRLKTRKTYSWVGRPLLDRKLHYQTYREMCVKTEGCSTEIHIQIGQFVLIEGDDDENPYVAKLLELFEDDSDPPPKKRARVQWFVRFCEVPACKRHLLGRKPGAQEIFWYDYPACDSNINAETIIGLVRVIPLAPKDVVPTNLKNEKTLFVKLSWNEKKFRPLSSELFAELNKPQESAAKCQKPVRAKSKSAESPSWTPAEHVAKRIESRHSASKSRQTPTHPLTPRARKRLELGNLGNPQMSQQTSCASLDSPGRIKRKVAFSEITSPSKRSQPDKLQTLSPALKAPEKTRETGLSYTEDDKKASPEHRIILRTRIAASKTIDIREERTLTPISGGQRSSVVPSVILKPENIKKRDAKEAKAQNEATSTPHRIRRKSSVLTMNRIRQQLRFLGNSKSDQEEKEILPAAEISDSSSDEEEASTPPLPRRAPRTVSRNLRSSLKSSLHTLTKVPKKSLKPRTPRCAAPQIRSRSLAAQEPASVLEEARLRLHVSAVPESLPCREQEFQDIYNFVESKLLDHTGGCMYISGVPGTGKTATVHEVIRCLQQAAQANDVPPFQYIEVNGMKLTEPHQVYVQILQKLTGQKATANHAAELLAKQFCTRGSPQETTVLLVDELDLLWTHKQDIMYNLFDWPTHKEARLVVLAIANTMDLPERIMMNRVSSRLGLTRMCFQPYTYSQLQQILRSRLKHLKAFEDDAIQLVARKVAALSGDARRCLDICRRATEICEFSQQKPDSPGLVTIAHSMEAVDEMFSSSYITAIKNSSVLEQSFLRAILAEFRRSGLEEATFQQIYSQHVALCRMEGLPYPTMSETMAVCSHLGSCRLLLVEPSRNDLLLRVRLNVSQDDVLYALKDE

B1: OBI1 (ORC-ubiquitin-ligase-1), endogenous (enzyme, UniProt Q5W0B1 1-726)
chain: MAQTVQNVTLSLTLPITCHICLGKVRQPVICINNHVFCSICIDLWLKNNSQCPACRVPITPENPCKEIIGGTSESEPMLSHTVRKHLRKTRLELLHKEYEDEIDCLQKEVEELKSKNLSLESQIKTILDPLTLVQGNQNEDKHLVTDNPSKINPETVAEWKKKLRTANEIYEKVKDDVDKLKEANKKLKLENGGLVRENLRLKAEVDNRSPQKFGRFAVAALQSKVEQYERETNRLKKALERSDKYIEELESQVAQLKNSSEEKEAMNSICQTALSADGKGSKGSEEDVVSKNQGDSARKQPGSSTSSSSHLAKPSSSRLCDTSSARQESTSKADLNCSKNKDLYQEQVEVMLDVTDTSMDTYLEREWGNKPSDCVPYKDEELYDLPAPCTPLSLSCLQLSTPENRESSVVQAGGSKKHSNHLRKLVFDDFCDSSNVSNKDSSEDDISRSENEKKSECFSSPKTGFWDCCSTSYAQNLDFESSEGNTIANSVGEISSKLSEKSGLCLSKRLNSIRSFEMNRTRTSSEASMDAAYLDKISELDSMMSESDNSKSPCNNGFKSLDLDGLSKSSQGSEFLEEPDKLEEKTELNLSKGSLTNDQLENGSEWKPTSFFLLSPSDQEMNEDFSLHSSSCPVTNEIKPPSCLFQTEFSQGILLSSSHRLFEDQRFGSSLFKMSSEMHSLHNHLQSPWSTSFVPEKRNKNVNQSTKRKIQSSLSSASPSKATKS
binding [1]: binds | binding [2]: binds | binding [3]: no binding | binding [4]: no binding | binding [5]: binds
